The campaign covered roughly 420,000 compounds. About 64,000 (15%) were called active. Inconclusive results, whose numbers are uncertain, are shown with a selection of clear calls. The call rests on the fitted dose curve; in most records, active means well fitted inhibition curve with a large enough effect; inconclusive means small, poorly fitted or top-dose-only effect; inactive means flat fitted curve, though single readings scatter. No potency is given beside an inconclusive call; the fits are too rough.
Experiment: qHTS for Inhibitors of human tyrosyl-DNA phosphodiesterase 1 (TDP1): qHTS in cells in absence of CPT; further: nearly all actives have a fitted effect of over 55% in size
Conditions: DT40 Tdp1-/- hTDP1 cells, no CPT, ATP luminescence, 48 h; activity change, negative = growth inhibition: at 46.2 µM (top of the series) unless noted
Summary of the method: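 Luminescent ATP content (CellTiter-Glo) served as the growth readout. Knockout chicken DT40 cells expressing human TDP1 were exposed to compounds without camptothecin for a minimum 48 hr at 37 °C.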
On the % scale 0 is the no-effect control and ±100 the full control effect; potency means the concentration at half of the fitted maximal effect; tags describe the fitted curve by direction and shape.

Row | Compound | Potency | activity change, negative = growth inhibition
1 | OCCNCCSc1nc(C2CCCCC2)n(-c2ccccc2Cl)n1 | inconclusive [inhibitor, single point] | –
2 | O=C(NCCc1ccccc1)c1nc2c(nnn2Cc2ccccc2Cl)c(=O)[nH]1 | inconclusive [inhibitor, single point] | –
3 | CCOC(=O)Cc1csc(NC(=O)CSc2nnc(-c3ccncc3)n2Cc2ccco2)n1 | inconclusive [inhibitor, single point] | –
4 | CC(=O)N1CCCc2cc(S(=O)(=O)N3CCCC(C(=O)NCc4ccccc4Cl)C3)ccc21 (stereo unspecified) | active: 25.9 µM | –
5 | COCCn1c(Cc2cccn2C)nnc1SCC(=O)NCc1ccc2c(c1)OCO2 | – | inactive: -23.1%
6 | COc1ccc(-c2ccc(-c3nnc(Cc4ccc(OC)c(OC)c4)o3)cc2)cc1 | – | inactive: 1.13%
7 | Cc1ccc(N/C(N)=N/c2nc(CSc3nnc(N)s3)cc(=O)[nH]2)cc1 | – | inactive: 13.9%
8 | O=C(/C=C1\NC2(CCCC2)Cc2ccccc21)C(=O)N/N=C/c1ccc(O)c(O)c1 | active: 4.61 µM | –
9 | CCN1CCN(Cc2c(O)ccc3c2O/C(=C\C=C\c2ccccc2OC)C3=O)CC1 | active: 18.4 µM | –
10 | CCOC(=O)c1ccccc1NC(=O)CN(c1cccc(C)c1C)S(=O)(=O)c1ccccc1 | active: 5.8 µM | –
11 | CC(=O)Nc1cccc(NC(=O)COc2ccc3c(c2)OCO3)c1 | inconclusive [inhibitor, single point] | –
12 | O=c1c2c(nc(NCCO)n1CC1CCCCC1)-c1ccccc1CC21CCCC1 | inconclusive [inhibitor, single point] | –
13 | Brc1ccc2nc(C3CCCCC3)c(Cc3ccsc3)n2c1 | active: 16.4 µM | –
14 | Cc1nn(-c2nnc(C)c(=O)[nH]2)c(C)c1SCC(=O)Nc1ccc(C(C)C)cc1 | inconclusive [inhibitor, single point] | –
15 | O=C(CSc1ccc(-c2cccnc2)nn1)Nc1ccc(F)c(F)c1 | inconclusive [inhibitor, single point] | –
16 | COc1ccccc1-n1c(=O)c2c3c(sc2n2c(SC)nnc12)CCC3 | – | inactive: -11.9%
17 | CCN(CC)CCCNC(=O)c1cc(-c2ccccc2)c(N2CCCCC2)s1 | active: 14.6 µM | –
18 | CCOc1ccccc1NC(=O)C1CCN(S(=O)(=O)c2ccc3[nH]c(=O)oc3c2)CC1 | inconclusive [inhibitor, single point] | –
19 | CCN(CC)c1ncnc2c1ncn2[C@H]1CN(Cc2ccc(OC)cc2)C[C@@H](CO)O1 | inconclusive [inhibitor, single point] | –
20 | O=C(NCCN1CCN(c2ccccc2F)CC1)C1c2ccccc2C(=O)N2CCc3ccccc3C12 (stereo unspecified) | inconclusive [inhibitor, partial curve, poor fit] | –
21 | Cc1cc(C)c(OCCCCN(C)Cc2ccccc2)c(C)c1 | active: 23.1 µM | –
22 | NC(=S)NN=C(Cc1ccccc1)Cc1ccccc1 | active: 3.66 µM | –
23 | Nc1nc(Cl)cc(Sc2ccc3ccccc3c2)n1 | active: 23.1 µM | –
24 | CN(C1CCCCC1)S(=O)(=O)c1ccc(-c2ccccn2)s1 | – | inactive: -3.71%

Row | Compound | Potency | activity change, negative = growth inhibition
25 | Cn1c(SCC(=O)NCc2ccc3c(c2)OCO3)nc2c(c1=O)SCC2 | – | inactive: -27.8%
26 | O=c1c2ccccc2c(C=NCCCN2CCOCC2)c(O)n1Cc1ccccc1 | inconclusive [inhibitor, single point] | –
27 | O=C(C[C@@H]1C/C=C\CCC(=O)O[C@H](c2ccccc2)CNC1=O)N[C@H](CO)Cc1ccccc1 | – | inactive: -13.2%
28 | O=C(Nc1nc2ccccc2[nH]1)C12CC3CC(CC(C3)C1)C2 | inconclusive [inhibitor, single point] | –
29 | CN1C(=O)NC(c2cccc([N+](=O)[O-])c2)C2=C1CCCC2=O (stereo unspecified) | – | inactive: 1.2%
30 | Cc1cc(Cl)cc2sc(NC(=O)c3ccco3)nc12 | – | inactive: -5.4%
31 | CCC(C)(C)C1CCc2[nH]nc(C(=O)NCc3ccc(Cl)cc3)c2C1 (stereo unspecified) | inconclusive [inhibitor, single point] | –
32 | C#CCOCCOCCOCCNc1nc(N2CCN(C(=O)[C@H]([C@@H](C)CC)n3cc([C@@H](N)CC(C)C)nn3)CC2)nc(N2CCN(C(=O)[C@H](CCCCN)n3cc([C@@H](N)CO)nn3)CC2)n1 | – | inactive: 0.245%
33 | COc1ccc2[nH]c3c(c2c1)CCN1C(=O)C(CC(=O)NCCCN(C)C)C[C@H](C(=O)N2CCCCC2)[C@@]31C (stereo partly specified) | – | inactive: -16.6%
34 | CN(CC(=O)Nc1cccc(F)c1)C(=O)CNC(=O)Cc1cccc2ccccc12 | inconclusive [inhibitor, single point] | –
35 | CC(=O)NC(=S)Nc1sc2c(c1C(N)=O)CCC(C)C2 (stereo unspecified) | – | inactive: -0.306%
36 | CCOc1ccc(S(=O)(=O)/N=C(/Nc2ccc(S(N)(=O)=O)cc2)c2ccccc2)cc1 | inconclusive [inhibitor, single point] | –
37 | COc1ccc(C(=O)O/N=C(\N)c2ccccn2)c(OC)c1 | – | inconclusive: -31.9% [inhibitor]
38 | COC(=O)C(C)Sc1nc2c(cnn2-c2ccccc2)c(=O)[nH]1 (stereo unspecified) | inconclusive [inhibitor, single point] | –
39 | COc1cccc(C(=S)N2CCOCC2)c1OS(=O)(=O)c1ccc(Cl)cc1 | inconclusive [inhibitor, single point] | –
40 | Cc1nnc2ccc(-c3ccc(NC(=O)c4cccnc4Cl)cc3)nn12 | inconclusive [inhibitor, partial curve, poor fit] | –
41 | COc1ccc(C)cc1NC(=O)C1CCCN(S(=O)(=O)c2cccs2)C1 (stereo unspecified) | inconclusive [inhibitor, partial curve] | –
42 | COc1ccc(-n2c(-c3ccc(Cl)cc3)c[n+]3c2CCCCC3)cc1 | active: 0.731 µM | –
43 | CCC(C)NC(=O)c1c(C)oc2ncn(CC(C)C)c(=O)c12 (stereo unspecified) | inconclusive [inhibitor, single point] | –
44 | CC(C)n1c(=O)c2ccccc2n1Cc1cn(-c2ccc(Cl)cc2)nn1 | inconclusive [inhibitor, single point] | –
45 | Cc1cccc(C(=O)NCC(=O)NC(C)CCc2ccccc2)c1 (stereo unspecified) | – | inactive: 5.72%
46 | CO/N=C/c1c(-c2ccc(Cl)cc2)nc2cc(C)ccn12 | inconclusive [inhibitor, single point] | –
47 | CCNC(=O)CN(Cc1ccccc1)S(=O)(=O)c1ccccc1 | – | inactive: -15.9%
48 | CCSc1nnc(SCC(=O)c2c(N)n(C)c(=O)n(C)c2=O)s1 | active: 23.1 µM | –

Row | Compound | Potency | activity change, negative = growth inhibition
49 | O=C(CSc1nnc(-c2ccc(S(=O)(=O)N3CCCC3)cc2)o1)NCc1ccccc1 | active: 18.4 µM | –
50 | COc1ccccc1Nc1nc(N)nc(CN2CCC(Cc3ccccc3)CC2)n1 | inconclusive [inhibitor, single point] | –
51 | Cc1cc(C)c(NC(=O)c2nc3ccccc3nc2N2CCCCC2)c(C)c1 | active: 25.9 µM | –
52 | CCC(=O)N1CCc2cc(S(=O)(=O)NC(C(=O)NCCc3ccc(OC)c(OC)c3)C(C)C)ccc21 (stereo unspecified) | – | inactive: -3.68%
53 | COCCn1c(=O)c(-c2cccc(C#N)c2)nc2cnc(OC)nc21 | – | inactive: -0.635%
54 | Cc1ccccc1N/C(=C(/C(Cl)=C(Cl)Cl)[N+](=O)[O-])n1nnc2ccccc21 | inconclusive [inhibitor, single point] | –
55 | CC1CCN(S(=O)(=O)c2ccc(NC(=O)c3cccs3)cc2)CC1 | inconclusive [inhibitor, partial curve] | –
56 | COC(=O)c1ccccc1NC(=O)c1ccc(COc2cccc3ccccc23)o1 | inconclusive [inhibitor, single point] | –
57 | COc1cc(/C=C(\C#N)c2nc3ccccc3[nH]2)ccc1Oc1ccc([N+](=O)[O-])cn1 | active: 20.6 µM | –
58 | CS(=O)(=O)c1ccc(S(=O)CC(=O)Oc2ccc(Cl)cc2)c([N+](=O)[O-])c1 (stereo unspecified) | active: 0.58 µM | –
59 | Cc1ccc2cn[nH]c2c1N | – | inactive: -10.1%
60 | O=C(Cn1c(=O)n(CCc2ccccc2)c(=O)c2cccnc21)Nc1ccc(F)cc1 | inconclusive [inhibitor, single point] | –
61 | CCCCNC(=O)C1CCC(Cn2c(=O)c3sccc3n(Cc3ccccc3)c2=O)CC1 (stereo unspecified) | – | inactive: 3.67%
62 | CCN(CC)c1ccc(/C=N/NC(=O)c2cc(C)nc3ccccc23)cc1 | inconclusive [inhibitor, partial curve] | –
63 | CNC(=O)COC(=O)c1cc(-c2ccco2)nc2ccccc12 | inconclusive [inhibitor, single point] | –
64 | C=CC[C@H](CC(=O)NCCO)C(=O)N[C@H](C)COC(=O)[C@@H](CC=C)Cc1ccc(F)cc1 | inconclusive [inhibitor, partial curve] | –
65 | COc1cc(C2OCC3C(c4cc(OC)c(OC)c(OC)c4)OCC23)cc(OC)c1OC (stereo unspecified) | inconclusive [inhibitor, single point] | –
66 | Cc1cc(C(=O)N2CCN(c3ccccc3)CC2)c2c(C)nn(-c3cccc(F)c3)c2n1 | active: 16.4 µM | –
67 | CCc1ccc2oc(=O)cc(CN3CCN(c4ccc(F)cc4)CC3)c2c1 | active: 16.4 µM | –
68 | CCN(CC)S(=O)(=O)c1ccc2[nH]cc(C(=O)NCCc3ccc(OC)c(OC)c3)c(=O)c2c1 | – | inconclusive: -33.4% [inhibitor]
69 | NC(Cc1ccc(Cl)cc1)c1csc(NC(=O)NCCc2ccccc2)n1 (stereo unspecified) | inconclusive [inhibitor, single point] | –
70 | CCSc1nnc(-c2ccc(Cl)cc2)c2ccccc12 | inconclusive [inhibitor, single point] | –
71 | CCCCNC(=O)CSc1nc2cc3c(cc2c(=O)n1CCCC(=O)NCCc1ccc(OC)c(OC)c1)OCO3 | inactive | –

From PubChem BioAssay AID686978 (National Center for Advancing Translational Sciences (NCATS), 2013)
